Assay results: publication PMC11585768
These are yes or no findings as the source states them, for the method shown. Binding seen in cells or lysates may run through a third protein. Some entries that bind do so weakly or less than the wild type.

Protein sequences, listed by entry. Tags and fused reporters are not part of them.
UniProt Q02156: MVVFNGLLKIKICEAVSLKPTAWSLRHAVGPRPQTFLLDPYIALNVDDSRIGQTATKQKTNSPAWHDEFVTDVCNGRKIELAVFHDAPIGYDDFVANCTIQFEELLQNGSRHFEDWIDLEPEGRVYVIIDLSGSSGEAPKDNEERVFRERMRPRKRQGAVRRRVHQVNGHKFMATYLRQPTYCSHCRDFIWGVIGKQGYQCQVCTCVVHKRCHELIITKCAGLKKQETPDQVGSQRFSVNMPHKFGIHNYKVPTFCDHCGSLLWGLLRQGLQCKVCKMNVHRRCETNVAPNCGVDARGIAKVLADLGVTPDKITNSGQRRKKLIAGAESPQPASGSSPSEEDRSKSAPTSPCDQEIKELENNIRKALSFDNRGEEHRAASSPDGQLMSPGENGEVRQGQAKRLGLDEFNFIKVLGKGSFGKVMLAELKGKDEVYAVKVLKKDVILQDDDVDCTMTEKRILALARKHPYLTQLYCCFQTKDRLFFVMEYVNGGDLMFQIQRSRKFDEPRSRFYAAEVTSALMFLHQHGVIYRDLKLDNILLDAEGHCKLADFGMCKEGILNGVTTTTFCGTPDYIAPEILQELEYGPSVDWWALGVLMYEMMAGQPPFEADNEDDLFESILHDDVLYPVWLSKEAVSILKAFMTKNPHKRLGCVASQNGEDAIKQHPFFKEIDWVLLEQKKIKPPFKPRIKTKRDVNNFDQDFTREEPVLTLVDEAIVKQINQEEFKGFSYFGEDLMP
UniProt Q05655: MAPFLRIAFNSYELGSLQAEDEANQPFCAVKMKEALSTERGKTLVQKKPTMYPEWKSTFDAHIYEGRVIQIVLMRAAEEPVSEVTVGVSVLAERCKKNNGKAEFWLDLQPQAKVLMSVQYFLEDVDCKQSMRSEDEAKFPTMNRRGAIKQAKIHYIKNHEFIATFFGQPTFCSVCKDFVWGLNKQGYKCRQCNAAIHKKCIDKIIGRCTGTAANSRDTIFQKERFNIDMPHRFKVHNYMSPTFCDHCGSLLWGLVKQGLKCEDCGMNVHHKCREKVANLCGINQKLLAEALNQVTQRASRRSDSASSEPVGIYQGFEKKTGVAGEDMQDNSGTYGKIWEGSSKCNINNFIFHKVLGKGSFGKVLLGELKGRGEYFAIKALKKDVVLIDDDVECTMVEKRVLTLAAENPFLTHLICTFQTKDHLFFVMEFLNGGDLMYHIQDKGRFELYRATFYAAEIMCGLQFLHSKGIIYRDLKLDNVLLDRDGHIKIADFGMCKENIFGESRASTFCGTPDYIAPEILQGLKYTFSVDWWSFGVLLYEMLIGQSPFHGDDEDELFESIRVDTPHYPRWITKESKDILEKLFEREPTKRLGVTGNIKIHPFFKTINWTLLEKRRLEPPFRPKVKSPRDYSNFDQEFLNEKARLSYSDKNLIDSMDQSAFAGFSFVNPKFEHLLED
UniProt Q92879: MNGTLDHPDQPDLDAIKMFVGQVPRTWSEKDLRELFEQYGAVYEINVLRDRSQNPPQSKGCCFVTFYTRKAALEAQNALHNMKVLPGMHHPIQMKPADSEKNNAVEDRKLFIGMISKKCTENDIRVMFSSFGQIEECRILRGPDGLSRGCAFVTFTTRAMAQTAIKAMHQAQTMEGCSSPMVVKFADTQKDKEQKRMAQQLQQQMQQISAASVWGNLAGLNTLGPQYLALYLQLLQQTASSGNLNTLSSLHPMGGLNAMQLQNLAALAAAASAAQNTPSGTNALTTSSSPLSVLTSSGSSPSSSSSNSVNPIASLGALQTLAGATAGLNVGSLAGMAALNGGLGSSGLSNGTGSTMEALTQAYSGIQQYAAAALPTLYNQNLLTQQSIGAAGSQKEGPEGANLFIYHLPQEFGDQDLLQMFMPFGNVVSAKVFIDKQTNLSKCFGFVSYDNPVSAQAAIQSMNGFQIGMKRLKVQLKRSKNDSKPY

What was measured:
[1] = target: protein kinase C alpha (human (endogenous in MCF-10A)) (UniProt P17252); test: co-IP; immunoprecipitation with anti-PKC isozyme antibodies on Agarose A/G Plus beads from extracts of untreated (no TGF-β, epithelial) MCF-10A cells; 1 mg lysate, overnight at 4 °C; immunoblot for CELF1
[2] = target: protein kinase C epsilon (human (endogenous in MCF-10A)) (UniProt Q02156); test: as above
[3] = target: PKC delta (human (endogenous in MCF-10A)) (UniProt Q05655); test: as above
[4] = target: protein kinase C alpha (human (endogenous in MCF-10A)) (UniProt P17252); test: co-IP; immunoprecipitation with anti-PKC isozyme antibodies on Agarose A/G Plus beads from cytoplasmic extracts of TGF-β-treated (5 ng/ml, 72 h) MCF-10A cells; 1 mg lysate, overnight at 4 °C; immunoblot for CELF1
[5] = target: protein kinase C epsilon (human (endogenous in MCF-10A)) (UniProt Q02156); test: as above
[6] = target: PKC delta (human (endogenous in MCF-10A)) (UniProt Q05655); test: as above
[7] = target: CELF1 (CUGBP and eELAV-like family member 1) RNA-binding protein (human (endogenous in MCF-10A)) (UniProt Q92879); test: co-IP; reverse: immunoprecipitation with anti-CELF1 antibody from cytoplasmic extracts of TGF-β-treated (5 ng/ml, 72 h) MCF-10A cells; immunoblot for the PKC isozymes

Substance | binding [1] | binding [2] | binding [3] | binding [4] | binding [5] | binding [6] | binding [7]
CELF1 (CUGBP and eELAV-like family member 1) RNA-binding protein (from UniProt Q92879 1-486) | no binding (condition: untreated MCF-10A cells (no TGF-β)) | no binding (condition: untreated MCF-10A cells (no TGF-β)) | no binding | binds | binds | no binding | –
protein kinase C alpha (from UniProt P17252 1-672) (enzyme) | – | – | – | – | – | – | binds
protein kinase C epsilon (from UniProt Q02156 1-737) (enzyme) | – | – | – | – | – | – | binds
